Out of some 110,000 compounds screened, about 230 (0.21%) showed an effect of 50% or more. This is one part of the list.
Molecular target: DPAP1 (Plasmodium falciparum, UniProt Q8IIJ9)
Assay: primary screen, percent inhibition; read by cleavage of a fluorogenic dipeptide substrate; higher = more effect of the substance
Parameters: species or system P. falciparum D10 trophozoite lysates; single well
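Further: 30 min substrate incubation versus DMSO and 10 µM JCP410 controls.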

Sequence of DPAP1 (Q8IIJ9 whole entry, looked up): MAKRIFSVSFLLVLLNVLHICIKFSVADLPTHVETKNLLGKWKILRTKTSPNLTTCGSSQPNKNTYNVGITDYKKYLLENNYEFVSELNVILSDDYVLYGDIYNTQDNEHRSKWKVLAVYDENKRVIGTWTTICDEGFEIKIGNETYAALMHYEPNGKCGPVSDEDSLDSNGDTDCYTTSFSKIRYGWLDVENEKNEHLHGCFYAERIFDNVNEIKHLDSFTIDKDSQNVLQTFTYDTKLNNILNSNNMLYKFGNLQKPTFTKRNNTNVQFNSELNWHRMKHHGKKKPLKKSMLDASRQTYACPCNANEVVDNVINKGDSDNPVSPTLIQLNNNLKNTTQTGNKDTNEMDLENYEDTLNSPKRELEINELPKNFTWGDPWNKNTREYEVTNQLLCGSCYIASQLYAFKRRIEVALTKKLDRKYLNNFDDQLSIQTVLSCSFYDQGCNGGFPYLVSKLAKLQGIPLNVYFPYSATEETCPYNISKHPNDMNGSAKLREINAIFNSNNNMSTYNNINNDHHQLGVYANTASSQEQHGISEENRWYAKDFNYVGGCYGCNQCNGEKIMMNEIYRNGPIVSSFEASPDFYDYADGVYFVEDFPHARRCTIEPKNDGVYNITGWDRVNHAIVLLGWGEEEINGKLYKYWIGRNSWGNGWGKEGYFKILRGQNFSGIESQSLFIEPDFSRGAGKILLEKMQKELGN

Row | SMILES | % Inhibition @ 10 uM
1 | O=C(O)CCC(=O)Nc1ccccc1C(=O)Nc1ccc(F)cc1 | -0.95%
2 | O=C1/C(=C\c2ccc(-c3ccc(Cl)cc3Cl)o2)Sc2ccccc21 | -4.01%
3 | CC(=O)c1cccc(NC(=O)CSc2nc(N)cc(N)n2)c1 | -2.11%
4 | Cc1cc(O)cc2occ(-c3cnn(-c4ccccc4)c3)c(=O)c12 | 1.67%
5 | CC(=O)OC1(C(=O)/C=C/c2ccccc2)CCCCC1 | -2.47%
6 | CC(=O)N1N=C(c2ccco2)CC1c1cccs1 (stereo not shown) | 0.472%
7 | CC(C)(C)c1[nH]nc2c1C(c1ccc(F)cc1)C(C#N)=C(N)O2 (stereo not shown) | 6.06%
8 | Cc1noc(/C=C/c2cccs2)c1S(=O)(=O)N1CCCC(C(=O)N2CCOCC2)C1 (stereo not shown) | -3.44%
9 | COc1cc(C(=O)ON=C2C=C(C)C(=O)C(C)=C2)cc(OC)c1OC | -11.3%
10 | CC(C)(C)c1ccc(S(=O)(=O)NCCOCC(F)(F)C(F)F)cc1 | -0.703%
11 | N#CC1=C(N)Oc2cc(Nc3ccccc3)ccc2C1c1ccncc1 (stereo not shown) | -2.77%
12 | CCOc1ccc(CCNc2nc(C)cc(COC)c2C#N)cc1OCC | -0.222%
13 | CC(=O)Nc1nonc1-c1nc2ccccc2n1Cc1ccc(C#N)cc1 | 4.32%
14 | COc1ccccc1OCCn1c(CCNC(=O)c2ccco2)nc2ccccc21 | 0.486%
15 | CN1C(=O)/C(=C/c2cc(Br)ccc2OCC(=O)O)S/C1=N/c1cccc(C(=O)O)c1 | 16.8%
16 | CSc1ccc(/C=C/C(=O)O)cc1 | -7.98%
17 | CCN(CC)CCCNC(=O)c1[nH]c2cc(OC)ccc2c1Sc1ccccc1 | 0.236%
18 | C=CCSc1nc2c(c(=O)n1C1CCOC(C)(C)C1)C1(CCCCC1)Cc1ccccc1-2 (stereo not shown) | -0.267%
19 | c1ccc(CN2CCC(N3CCN(c4ncccn4)CC3)CC2)cc1 | -3.27%
20 | CCOC(=O)c1c(C)c(C(=O)NCc2cccs2)c(C)n1CC | -1.66%
21 | COc1ccc2nc(-c3ccccc3)cc(C(=O)NC3CCCCC3)c2c1 | -4.43%
22 | O=C(NC(c1ccccc1)c1ccccc1)c1ccccc1Cl | 0.135%
23 | NC(=O)C1CCCN(C2CC(=O)N(c3ccc(Br)cc3)C2=O)C1 (stereo not shown) | -3.9%
24 | CCN(CC)CCN(C(=O)c1ccco1)c1nc2c(C)cc(C)cc2s1 | 4.2%
25 | CCOC(=O)c1ccc(-c2ccc(/C=C3\C(=N)N4N=C(N5CCCC5)SC4=NC3=O)o2)cc1 | -3.44%

Row | SMILES | % Inhibition @ 10 uM
26 | COc1ccc(CNC(=O)c2cnn3c2NC(c2cccs2)CC3C(F)(F)F)cc1 (stereo not shown) | -4.4%
27 | COc1cc(OC)c(/C=C2/SC(Nc3ccc(C)cc3)=NC2=O)c(OC)c1 | 1.64%
28 | Cc1cccc(C)c1NC(=O)CC(=O)c1ccccc1 | 2.76%
29 | CCOc1cc(C(=O)N2CCN(c3ccc(F)cc3)CC2)cc(OCC)c1OCC | 0.812%
30 | O=C(NC1CC1)c1ccc(COc2ccc3c(c2)CCC3)o1 | 6.79%
31 | Cc1ccc(NC(=O)c2ccc([N+](=O)[O-])cc2)c(C)c1 | 3%
32 | Cc1c(-c2c(C#N)c(N)nc3c2CCCCCC3)cnn1C | 2.42%
33 | Cc1ccc(S(=O)(=O)Nc2ccccc2C(C)(C)C)cc1 | 4.88%
34 | N#CC1=C(N)Oc2cc(O)ccc2C1c1ccccc1Cl (stereo not shown) | -0.197%
35 | Cc1cc(Cl)n2nc(C)c(-c3ccc(Cl)cc3)c2n1 | 6.43%
36 | O=C(CSc1nnc(COc2ccccc2)o1)NCc1ccccc1 | -4.51%
37 | CCN(CC)S(=O)(=O)c1ccc(NC(=O)COc2ccc(Cl)cc2C)cc1 | -0.511%
38 | O=C1C2CC=C(Cl)CC2C(=O)N1CNc1cc(Cl)ccc1Cl (stereo not shown) | -0.68%
39 | COc1ccc(S(=O)(=O)NCC2CCC(C(=O)NCCCN3CCCC3=O)CC2)cc1 (stereo not shown) | 2.35%
40 | CCc1ccc2oc(-c3cc(N)ccc3O)nc2c1 | 0.162%
41 | CCC(CC)C(=O)/N=C1/SC2CS(=O)(=O)CC2N1Cc1ccccc1Cl (stereo not shown) | -1.15%
42 | Cc1ccc2c(c1)c1c(n2CCN2C(=O)c3ccccc3C2=O)C(=O)CCC1 | 2.66%
43 | CCOc1ccc(CC(=O)C2=C(NCc3ccccc3)CC(C)(C)CC2=O)cc1OCC | -2.63%
44 | CCCCc1c(O)c2ccccc2n(CCCC)c1=O | 7.33%
45 | CCC[C@H](NC(=O)[C@@H](NC(=O)c1ccc(-c2ccccc2Cl)c(Cl)c1)C1CCCCC1)C(=O)c1nnc(CC)o1 | 4.33%
46 | COc1cccc(/C=N/n2c(S)nnc2-c2ccccc2)c1 | 1.13%
47 | O=C(CN1C(=O)S/C(=C\C=C\c2ccccc2)C1=O)N1CCCCC1 | -6.08%
48 | CCc1nnc(N2CCN(c3ncnc4c3oc3ccccc34)CC2)s1 | -3.53%
49 | C#CCOc1c(/C=C2/SC(=O)NC2=O)cc(Br)cc1OC | -3.04%
